Over roughly 33,000 sequences, “E-score (-0.5 to 0.5)” has its median near -0.013; the highest 2% begin near 0.3. The list shows a part of the results.
What follows are sequences tested against T1, Msn1 (UniProt P22148) (assay: PBM E-score (8-mer binding enrichment) (E-score (-0.5 to 0.5)); higher = stronger / more preferred TF binding; most listed sequences are background and not binding sites). Conditions: protein concentration: 200 nM; construct: GST-full length.
T1 sequence: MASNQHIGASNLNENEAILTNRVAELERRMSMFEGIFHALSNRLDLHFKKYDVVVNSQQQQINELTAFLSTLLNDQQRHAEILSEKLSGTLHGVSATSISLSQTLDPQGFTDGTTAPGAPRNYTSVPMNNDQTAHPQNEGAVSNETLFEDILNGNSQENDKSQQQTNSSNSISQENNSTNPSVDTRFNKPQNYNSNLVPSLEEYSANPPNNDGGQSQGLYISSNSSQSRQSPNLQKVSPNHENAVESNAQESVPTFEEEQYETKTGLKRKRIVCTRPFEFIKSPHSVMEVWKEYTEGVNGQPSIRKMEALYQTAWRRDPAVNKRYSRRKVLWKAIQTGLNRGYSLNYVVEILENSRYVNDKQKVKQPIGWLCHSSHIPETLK
Outline: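 Universal all-10-mer Agilent arrays, fresh or stripped once, were converted to double-stranded form by primer extension. GST-tagged yeast transcription factors from PURExpress in vitro transcription/translation, full-length or DNA-binding domain only, were applied at about 100-200 nM and detected with fluorescent anti-GST. After masliner normalisation, the Universal PBM Analysis Suite scored each ungapped eight-base word together with its reverse complement by E-score.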

Row | Sequence | PBM E-score
1 | GGACTCCA | -0.0724
2 | CCCCATGA | -0.0806
3 | CCGTATAG | -0.0743
4 | GTCTTTAA | 0.135
5 | CTACGTGC | -0.277
6 | ATTTTATG | 0.196
7 | CCAGTACG | -0.0732
8 | AGACATAA | 0.373
9 | GCAGAAGA | -0.116
10 | AGTCTGAG | -0.1
11 | ATCGCGGG | -0.0707
12 | AGTTAAGG | 0.00694
13 | ACATAGCA | 0.113
14 | TAGGAATA | 0.0598
15 | CTATTTAA | 0.0263
16 | ACTGCTCG | -0.00898
17 | AGTCAGGA | -0.0116
18 | TCGAGAAA | 0.139
19 | AGGGAAGC | -0.122
20 | GCGGGGAA | 0.0187
21 | GAAGGCCC | -0.2
22 | CCTTCCCG | -0.199
23 | CTGCCAAG | -0.103
24 | AGAAAAAG | -0.0022
25 | CGGGCCGA | -0.0715

Row | Sequence | PBM E-score
26 | TTCAAGAA | 0.172
27 | CCGAATGC | 0.0112
28 | TCCTAGCA | -0.0856
29 | GGTTGTAA | 0.0159
30 | AGGACTAG | 0.273
31 | GATGCACC | -0.127
32 | GATTGCCC | -0.0176
33 | CGTTTGTC | 0.44
34 | ACTGCTTC | -0.239
35 | CTAACCAC | 0.0856
36 | CAAGAAGG | -0.143
37 | AATGTTCA | 0.27
38 | GTGGACCA | -0.0617
39 | AGACTGAT | -0.134
40 | GGTCGGTA | 0.0288
41 | CGGGGGCC | -0.373
42 | CACTCTGC | 0.127
43 | GTCCGTGA | 0.281
44 | CGTCAAGC | -0.00551
45 | TCGGCTCA | -0.0545
46 | GCCATGGA | -0.0409
47 | GAGTACGA | 0.066
48 | GCAGTATA | 0.0241
49 | CGTCGCGA | 0.132
50 | ACCTGGCT | -0.175

Row | Sequence | PBM E-score
51 | AACATGAC | 0.0901
52 | TATCGGAA | 0.189
53 | CTAGCGAC | -0.0316
54 | AATCCCAG | -0.00923
55 | GTGCCCTA | -0.216
56 | GTCGCTTA | 0.0727
57 | AGTCCATC | 0.0698
58 | ATAGACTC | -0.291
59 | CAACCTTA | -0.038
60 | CTTAATTA | 0.0858
61 | CAGACTAC | -0.051
62 | CAAGCCAA | 0.0988
63 | GAGTAGCA | -0.00134
64 | AGGCCTGG | -0.0852
65 | ACACAGCG | 0.203
66 | TAGTCCAA | 0.11
67 | CGTTCCAC | -0.174
68 | ACATACGA | 0.29
69 | ACATCGTA | 0.0275
70 | AGTACTGG | -0.185
71 | ATGTTTGC | -0.0389
72 | TCGTTCCA | -0.126
73 | ATTAAAGA | 0.209
74 | GTGATGGA | -0.0691
75 | TCCGTGCA | 0.145

Row | Sequence | PBM E-score
76 | ACTACTCA | -0.068
77 | ACGTACGT | 0.0825
78 | CGGCCTAG | -0.0976
79 | CTAAAACC | 0.0697
80 | ACCGAGCG | -0.0724
81 | ACAGCACG | 0.0367
82 | CGCGTCGA | 0.0801
83 | AAAGGCAC | -0.123
84 | AGTACAAG | 0.251
85 | AACACCAA | -0.0236
86 | ATCATTTC | 0.245
87 | ATACAACG | 0.19
88 | AACTGGGT | -0.125
89 | AAATGCCC | -0.157
90 | ACCTTCCG | 0.0345
91 | ACGATTTG | -0.0467
92 | CTATTAGC | 0.077
93 | CGTCTGAA | 0.114
94 | CTGGCTTA | -0.208
95 | GGTTCGCA | -0.201
96 | AATTTTAA | 0.0965
97 | GCGGTGCA | -0.331
98 | ATAGCCAA | 0.148
99 | AATGAGTA | 0.158
100 | ATTAAATG | 0.207

Row | Sequence | PBM E-score
101 | CTGTACCC | -0.0861
102 | GGTAAAGA | 0.0743
103 | ATCAGCAG | 0.0578
104 | AGGAGCCT | -0.298
105 | CACTGGAG | -0.337
106 | ACAGCGTC | 0.0533
107 | GCTTGGGA | -0.0579
108 | ACATCCGG | 0.223
109 | CGGACGCC | -0.0766
110 | GGATGGAA | -0.179
111 | AATGGCCT | -0.164
112 | TTCCGAAA | 0.0799
113 | CCAAGTTA | -0.0486
114 | ATTTAATC | 0.158
115 | TAAGTACA | 0.287
116 | GGGTCCAA | -0.104
117 | GGAATAAA | 0.119
118 | CGGACCTA | 0.00062
119 | ATCATAAA | 0.201
120 | ACACTCCC | -0.146
121 | CATTTTCA | 0.224
122 | CAGGAATA | -0.0463
123 | GGTCCGTA | 0.00752
124 | GGTATGCA | -0.0214
125 | CGGTATAC | -0.119

Row | Sequence | PBM E-score
126 | AGAGGCCT | -0.213
127 | AAGGTTGC | -0.246
128 | ATCGATGG | -0.0131
129 | GCCTCACC | -0.183
130 | GGCTCGAC | -0.105
131 | CGCTTGGA | 0.115
132 | CAGTATGC | -0.0723
133 | AGTGTAAA | 0.0278
134 | TATCTCGA | -0.0435
135 | GTGCCAGA | -0.177
136 | ACTCCAAC | 0.0775
137 | ACTCTAAT | 0.101
138 | GATCCTCC | -0.112
139 | GCAGCAAA | 0.00496
140 | GGGATTGA | 0.0459
141 | CGGGGGGC | -0.362
142 | CACGTGTC | 0.257
143 | GGGCCCAA | -0.152
144 | AAATCTAA | -0.0324
145 | AGTTTTGA | -0.0723
146 | GCCTGAAC | -0.251
147 | CCCTACGC | -0.241
148 | CCCCACCC | -0.059
149 | CTTCAGAA | 0.0967
150 | GGGCCACC | -0.185

Row | Sequence | PBM E-score
151 | AAAGGAAA | 0.0167
152 | ATGTAACA | 0.0892
153 | CTCGGCGA | 0.153
154 | GTGTTTCA | -0.0738
155 | GCTATAAC | -0.107
156 | AGGAAGGC | -0.135
157 | ACCTTCGG | 0.136
158 | CAATGTCC | 0.47
159 | ATCAGCCC | -0.282
160 | CCATATTC | -0.0353
161 | AGTATTAG | 0.15
162 | AAATCGGC | 0.061
163 | CGGTGACC | -0.155
164 | AGCAACCA | 0.0157
165 | AAAAACCT | 0.0792
166 | CTGCCCGA | -0.0218
167 | AAGCGCCC | -0.264
168 | AAAGGGTA | 0.0271
169 | TCAAATCA | 0.0292
170 | CGAGTCTA | -0.271
171 | CAAGGGGA | 0.0601
172 | AGGGCCTG | -0.165

Reference: the supplement of paper PMC3334620
